Measurements as given in the supplement of paper PMC10126150.
Sequences with one replicate were seen in a single cluster, so their values are uncertain.

Test system: ATP
Assay: switch fluorescence ratio, 500 uM ATP over buffer (Cy3 cluster intensity, sum of 5 cycles each) (fold (ratio)); higher = stronger signal-on switching upon ATP binding; sequences stand for … in TCGTCGGCAGCGTCAGATGTGTATAAGAGACAGTTTTTTTTTTTTTTTTTTTTTTTTT…TC
Details: aptamer strand: ATP DNA aptamer (quencher-CACCTGGGGGAGTATTGCGGAGGAAGG + anchor), 100 nM annealed; ATP concentration: 500 uM; one replicate
Summary of the method: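 Cy3-labelled switching-strand clusters on a modified Illumina MiSeq flow-cell were annealed to 100 nM quencher-labelled ATP aptamer, imaged in selection buffer, then imaged after 15 min with 500 uM ATP at 22 °C. Five buffer/ATP cycles ran, with NaOH stripping and re-annealing between them. The fluorescence ratio is summed target-cycle over summed buffer-cycle Cy3 intensity per cluster, averaged per switch-domain sequence. Clusters outside 100-1000 RFU were excluded.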
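Note: ATP exposure 15 min at 22 °C before imaging.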

Row | Sequence | switch fluorescence ratio
1 | TTGGCCAGGC | 0.992
2 | CAAGATCG | 0.991
3 | AATTAGTGCA | 1.04
4 | AGTTGCAAGA | 1.05
5 | GAATGTGGTT | 0.985
6 | CGCGCGAAGG | 1.02
7 | CATCTACGCC | 1.26
8 | CAGTTCATAC | 1.19
9 | GTTTCAAGTA | 1.06
10 | TCCGATTAGG | 1.02
11 | GAATGGTCTG | 0.98
12 | AGAATGAGCA | 0.994
13 | GCGTAAGGGA | 1.05
14 | GAAGGATGTA | 1.01
15 | GATGATCTGC | 1.04
16 | TAGGGTACTC | 1.04
17 | CGGTGCCCCA | 0.954
18 | TCCGTGTGAG | 0.958
19 | ATCATCGGCA | 1.09
20 | ACGACCCAAT | 3.18
21 | CTGACTCTT | 1.03
22 | ACAAGGGCAA | 0.927
23 | GGCGCGACAC | 1.03
24 | TCGAAGCGG | 1.04
25 | CTCTCAACAT | 1.07
26 | CGCTGAGTAA | 1.08

Row | Sequence | switch fluorescence ratio
27 | TTGCTACTTC | 0.991
28 | TGGTTAAGCC | 0.968
29 | ACGGTGGGG | 1.03
30 | CCCCCTGTTT | 1.26
31 | GGGACGCTTT | 1.01
32 | GATCTTCTTG | 0.971
33 | TACTAGTTAG | 1.01
34 | CCTACTATTG | 1.03
35 | AGAACCATTA | 0.958
36 | TCACAGTAGT | 1.08
37 | AGGCGTCTGA | 1.01
38 | GTTCCTTATT | 0.974
39 | TTCCGTCTGA | 1.04
40 | TAATGAGAGA | 0.958
41 | TTGGTACCCT | 1.02
42 | GCACCTTTGG | 1.02
43 | ATGATGCCTA | 0.981
44 | GTATGGAGTG | 1.03
45 | TAGGATGCCC | 0.986
46 | ACGACGGTCT | 1.17
47 | CGAGCGTGGG | 1.02
48 | AGTCTGTCGG | 0.992
49 | TCGCGCCACT | 2.28
50 | GTGGGATTTC | 0.972
51 | AAAACACAA | 1.02
52 | GCAGTAGCCT | 1.01

Row | Sequence | switch fluorescence ratio
53 | GCCTAGCGGT | 1.01
54 | CTATTATACC | 1.04
55 | AAATTTTGCG | 0.995
56 | TTACCAAAGT | 1.04
57 | AGCTGAAGCA | 1.06
58 | TGTGCTCCCC | 1.89
59 | AGCTCAGACC | 1.05
60 | AGCCAGTAT | 1.03
61 | TCTGTGGGCC | 0.995
62 | TATTGCCTT | 1.07
63 | GCTTCTGGAG | 2.13
64 | TGGAACAAGT | 0.954
65 | ACAAATTTTG | 1.01
66 | TAAACATTGC | 1.58
67 | GAATGGCGCG | 0.984
68 | GCTCAGTCCA | 1.03
69 | TGCCGATAAA | 1.01
70 | CTAGGAATGC | 2.93
71 | CCGAGGGGCA | 1.74
72 | TTTGCGGCCA | 0.998
73 | GCTCTAATCA | 0.979
74 | ATACGTATTT | 1.15
75 | ACTATCTCAA | 1.06
76 | TATCGGGAAT | 0.973
77 | CGTATGAGAT | 0.987
78 | GAGGCCCGTC | 0.958

Row | Sequence | switch fluorescence ratio
79 | AGCTGTTATG | 0.947
80 | TAGACTGCTC | 1.09
81 | CGTAAAGGCA | 0.946
82 | CAATTCTTAA | 0.986
83 | CACCCTTTAC | 1.63
84 | CTTAGTGTCC | 1.01
85 | TTTAGTGGAT | 1.02
86 | TCCTCTACTG | 1.15
87 | ATATGATTCA | 0.98
88 | CGTGAACGAG | 0.978
89 | TGGCACGGGA | 1.02
90 | GCGTATCAGT | 0.993
91 | CTAATTAGTC | 1
92 | TCATTTGTCC | 1.06
93 | GCGGGCATTC | 1.1
94 | CACTTGGGT | 0.949
95 | CTGTGTGATC | 0.976
96 | CGGAGTGTGG | 0.965
97 | TTTTGCCCCT | 1.05
98 | GACTGTCTAA | 0.984
99 | TTAGCG | 0.917
100 | TCCGATTTTC | 1.1
101 | ACGCTCTCGT | 0.971
102 | TCCGAGAAT | 0.997
103 | CATTAATGCA | 1.03
104 | GATCCTGCTG | 1.06

Row | Sequence | switch fluorescence ratio
105 | TTTGGAACGT | 0.957
106 | CGCGTGCCGC | 1.02
107 | CAACGATTG | 0.991
108 | CAGAATGGTA | 0.929
109 | ATGTAATGAC | 1.02
110 | CAGCAGAGAT | 1.06
111 | GGAGTCACTC | 0.99
112 | AATCGTATGC | 1.01
113 | CAAGTCGCG | 0.967
114 | GTTCAAGACT | 1.04
115 | CTAGAATCTG | 1.04
116 | TTCCACCAAT | 2.75
117 | AAGATATC | 1.04
118 | CAGGTTACGA | 1.01
119 | ATCGCGGCTG | 0.993
120 | TAACTGTATG | 0.96
121 | TGAGGCCCTG | 0.981
122 | CGGGGGTGAT | 1.08
123 | CGTCGACGAA | 0.946
124 | GGGAGTTCGT | 1.02
125 | AAAAATGGAA | 1.03
126 | CGGTATGGGC | 0.978
127 | CGCATGGGCA | 0.943
128 | ACACCGGGTT | 1.21
129 | TACACGTC | 1.02
130 | CAGTTTGGT | 1.02

Row | Sequence | switch fluorescence ratio
131 | GCTCGAGGCA | 1.01
132 | GATATATGTC | 0.955
133 | CGTCTCAGAA | 0.984
134 | ACTTTCTTTG | 0.967
135 | GCCGGGCATA | 1.09
136 | CGATTATTTA | 0.966
137 | TGTGCAAGGG | 1.04
138 | CTACGTCCTG | 1.04
139 | TTCTTGCGAT | 1.12
140 | ACTCATAACG | 1.08
141 | TGGTACCTAT | 1.03
142 | AGGTTGGTCA | 0.986
143 | GTGCGTGGGG | 1
144 | TGCGCCCCGG | 1.01
145 | GAAAAAATGA | 0.996
146 | CCGGATCCTT | 1.03
147 | TATCTCAGGT | 0.992
148 | ACCAACACAA | 1.25
149 | GCTCCTTGGG | 1
150 | CACGTAAGCG | 1.09
151 | ATCATGCTGC | 1.03
152 | CACTTGCTAG | 1
153 | CTAATCATGA | 0.938
154 | GCGGCTACGG | 0.999
